From PubChem BioAssay AID1508624 (National Center for Advancing Translational Sciences (NCATS), 2021) come the findings set out here.

Screen size: about 48,000 compounds; about 120 (0.25%) were called active. Inconclusive results (about 4%) are left out. Calls come from the whole dose curve; as a rule, active = well fitted activation curve with a large enough effect; inconclusive = small, poorly fitted or top-dose-only effect, or another doubt; inactive = no such curve, though single readings can be large or run the other way. This is one part of the list.

This test in a line: Primary qHTS for Identification of Small Molecule Activators of Huntingtin-Antisense Promoter Activity. Note: nearly all actives have a fitted effect of over 55% in size. To be noted: HEK293 HTT-AS promoter firefly luciferase reporter, 24 h; series mostly up to 57.5 µM; activity change, positive = activation: at the top concentration. The procedure, abridged:
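HEK293 luciferase promoter-reporter cells (2,500/well) plated 24 h, then compounds added at up to 57.5 uM final for 24 h at 37 °C. Firefly luminescence by Dual-Glo, normalized to vehicle (0%) and zero RLU (-100%).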
As for `CCOC(=O)C(C)Sc1nnc2ccc3ccccc3n12` (centres undefined), the “activity change, positive = activation” value is inactive: 23.2%.

In the case of `COc1ccc(C2(CNC(=O)C(=O)Nc3cccc(C(F)(F)F)c3)CCCC2)cc1OC`, the “activity change, positive = activation” value was inactive: -20.3%.

On to `COc1cc(CNCc2c(C(=O)O)c(C)n(Cc3cccc(Cl)c3)c2C)cc(OC)c1OC`, for which the “activity change, positive = activation” value was inactive: -13.3%.

As to `CCc1ccc2nc(N3CCC(C(=O)O)CC3)sc2c1`, the “activity change, positive = activation” value was inactive: -75%.

Take `Cc1c(Cl)cccc1-n1c(CCC(=O)O)ccc1-c1cccs1`: the “activity change, positive = activation” value was inactive: -8.06%.

Regarding `CCSc1nc2n(n1)C(c1ccc(CC)cc1)C(C(=O)Nc1ccccc1OC)=C(C)N2` (centres undefined), the “activity change, positive = activation” value was inactive: -2.88%.

Take `CCC(C(=O)N1CCN(c2cc(Cl)ccc2C)CC1)n1nc(C)n2c(cc3occc32)c1=O` (centres undefined): the “activity change, positive = activation” value was inactive: -52.6%.

Consider `COc1ccc(Br)cc1CNC(=O)C(C)n1nc(C)n2c(cc3occc32)c1=O` (centres undefined), for which the “activity change, positive = activation” value is inactive: -17.3%.

For `CCc1cccc(NC(=O)CN2C(=O)CCc3cc(S(=O)(=O)N4CCOCC4)ccc32)c1`, the “activity change, positive = activation” value was inactive: -18.1%.

`Cc1ccc2oc(C(=O)Nc3nnc(CC(C)C)s3)cc(=O)c2c1`: the activity change, positive = activation is inactive: 3.38% [at 11.5 µM, percent change from vehicle, -100% = no light].

As for `CN1CCCN=C1/C=C/c1cccs1`, the “activity change, positive = activation” value was inactive: -8.24%.

Regarding `CCN(CC)c1cc(C)nc2nc(-c3ccc(C)cc3)nn12`, the “activity change, positive = activation” value was inactive: -6%.

`Cc1ccc(CN2CCSc3ccc(C(=O)Nc4ccc(F)cc4F)cc32)cc1`: the “activity change, positive = activation” value is inactive: 23.9%.

With `Cc1cc2c(=O)c(C(=O)c3ccncc3)cn(CC(=O)Nc3cccc(C)c3C)c2cc1C`, the “activity change, positive = activation” value was inactive: -3.73%.

On to `Cc1oc(-c2ccc(C(=O)NCc3ccc(N(C)C)cc3)cc2)nc1COc1ccccc1`, for which the “activity change, positive = activation” value was inactive: -5.81%.

For the molecule `CC(NC(=O)CN(C)S(=O)(=O)c1ccc2c(c1)c(=O)n(C)c(=O)n2C)c1ccccc1` (centres undefined), the “activity change, positive = activation” value is inactive: -14%.

Consider `Cn1cc(S(=O)(=O)N2CCCCC2)cc1C(=O)N1CCN(c2ccc(F)cc2)CC1`, for which the “activity change, positive = activation” value was inactive: -20.7%.

For `Cc1cc(=O)n(CC(=O)NCCC(C)C)c2c1c(C)nn2C`, the “activity change, positive = activation” value was inactive: -7.46%.

For `Cc1ccc2c(c1)c(=O)c(C(=O)c1ccncc1)cn2CC(=O)Nc1c(C)cccc1C`, the “activity change, positive = activation” value is inactive: -1.21%.

For `CCc1ccc(NC(=O)CSc2nccn2C2CCCC2)cc1`, the “activity change, positive = activation” value was inactive: -1.92%.

Regarding `Cc1ccc(C)c(S(=O)(=O)c2cnc(SCC(=O)Nc3ccc(F)cc3F)[nH]c2=O)c1`, the “activity change, positive = activation” value was inactive: -3.58%.

As to `Cc1c(C(N)=O)nnn1-c1ccc(Br)cc1`, the “activity change, positive = activation” value is inactive: 0%.

For `CCN(CC)CCNC(=O)C1CCCN(c2ncnc3onc(C)c23)C1` (centres undefined), the “activity change, positive = activation” value is inactive: -10.7%.

As to `Cc1ccc(C)c(-c2csc(-c3c(N)c(C(=O)c4ccc5c(c4)OCO5)n4ccccc34)n2)c1`, the “activity change, positive = activation” value was inactive: -27.2%.

In the case of `COc1ccc(CCNC(=O)Cn2nc(C)n3c(cc4occc43)c2=O)cc1OC`, the “activity change, positive = activation” value was inactive: -14.5%.

Turning to `CCOC(=O)c1c(S(=O)(=O)N2CCCC(C(=O)N3CCN(c4ccc(F)cc4)CC3)C2)c(C)n(C)c1C` (centres undefined), the “activity change, positive = activation” value is inactive: 0%.

Turning to `COc1ccc(CCNC(=O)Cn2ncc3c(C)n(Cc4ccccc4F)c(C)c3c2=O)cc1OC`, the “activity change, positive = activation” value is inactive: -9.15%.

`Cc1cccc(NC(=O)Cn2c(=O)oc3cc(S(=O)(=O)NCc4ccccc4)ccc32)c1`: the “activity change, positive = activation” value was inactive: -31%.

For the molecule `COc1ccc(Br)cc1C1CC(=O)Nc2c1c(C)nn2-c1nc(C)cc(C)n1` (centres undefined), the “activity change, positive = activation” value was inactive: -17.3%.

For `Cc1ccc2nc(N(Cc3cccnc3)C(=O)C3CCCCC3)sc2c1`, the “activity change, positive = activation” value was inactive: -21.3%.

With `CCn1cc(C(=O)OCC(=O)Nc2cc(Cl)ccc2OC)c(=O)c2ccc(C)nc21`, the “activity change, positive = activation” value was inactive: -5.24%.

Take `CCc1ccccc1NC(=O)Cn1c(=O)n(Cc2ccccc2)c(=O)c2c(C)c(C(=O)N(C)C)sc21`: the “activity change, positive = activation” value is inactive: -12.1%.

Consider `CCOc1ccc(NC(=O)Cn2c(=O)cc(C)c3c(C)nn(C)c32)cc1`, for which the “activity change, positive = activation” value was inactive: -14.1%.

Regarding `Cc1csc2nc(-c3cccc(NS(C)(=O)=O)c3)cn12`, the “activity change, positive = activation” value was inactive: -0.741%.

Regarding `Cc1ccccc1CN1c2ccccc2-c2nc(SCC(=O)c3ccc(Cl)cc3)ncc2S1(=O)=O`, the “activity change, positive = activation” value was inactive: 20.3%.

In the case of `COCCCNC(=O)CCCN1C(=O)CCn2nc(-c3cccn3C)cc21`, the “activity change, positive = activation” value was inactive: 6.57%.

With `Cc1ccc(-c2nc(C)c(CCNC(=O)C(=O)Nc3cc(C)ccc3C)s2)cc1`, the “activity change, positive = activation” value was inactive: 1.37%.

In the case of `Cc1csc2nc(-c3ccc(NS(=O)(=O)c4cccc(F)c4)cc3)cn12`, the “activity change, positive = activation” value was inactive: -24.2%.

As to `COc1cc(CNCCSc2nnnn2C)ccc1OCc1ccccc1C`, the “activity change, positive = activation” value was inactive: -0.468%.

Take `Cc1ccccc1CNC(=O)c1ccc(NC(=O)N2CCCCc3ccccc32)cc1`: the “activity change, positive = activation” value is inactive: -20.2%.

Regarding `Cc1c(CN(C)C(=O)c2cc(-c3ccccc3)nc3ccc(Br)cc23)cnn1C`, the “activity change, positive = activation” value was inactive: -61.3%.

Take `CCCOc1ccc(C2=NC(c3ccncc3)=Nc3ccc(C)cc3N2)cc1`: the “activity change, positive = activation” value is inactive: -16.6%.

Turning to `Cc1ccc(-c2n[nH]c3c2C(c2ccccc2Cl)N(c2ccc(C(=O)O)cc2)C3=O)cc1` (centres undefined), the “activity change, positive = activation” value was inactive: -33.6%.

Regarding `Cc1oc2ccc(NS(=O)(=O)c3ccc(F)cc3)cc2c1C(=O)O`, the “activity change, positive = activation” value is inactive: -8.67%.

For the molecule `CSc1ncc(Cl)c(C(=O)Nc2c(C(=O)Nc3cccc(C)c3)oc3ccccc23)n1`, the “activity change, positive = activation” value was inactive: -6.23%.

Take `Cc1ccc(S(=O)(=O)c2c(Nc3ccc(C)c(C)c3)sc(C(=O)c3ccc4c(c3)OCO4)c2N)cc1`: the “activity change, positive = activation” value was inactive: -20.6%.

With `Cc1ccccc1-c1noc(-c2ccc(N3CCC(C)CC3)c([N+](=O)[O-])c2)n1`, the “activity change, positive = activation” value was inactive: -11.8%.

On to `CCc1ccc(CNC(=O)c2cnc(N3CCCCC3)c3ccccc23)cc1`, for which the “activity change, positive = activation” value was inactive: -29.7%.

`COc1ccc(CCNC(=O)C(=O)Nc2ccc(C)c(C)c2)cc1`: the “activity change, positive = activation” value was inactive: 20.9%.
